This passage reports cell count results from PubChem BioAssay AID1656 (Sanford-Burnham Center for Chemical Genomics, 2009).

Some of the results follow. The main result of the screen is listed elsewhere. These columns were measured beside it and carry no call. Most of these compounds were active or inconclusive in the main read-out, so they are no random draw.

This assay in a line: inhibitors of hepatocyte lipid droplet formation, primary screen, imaging, high-throughput imaging, BODIPY stain (AID 1656).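 Further: cells counted across two imaged fields per well.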 To be noted: AML12 mouse hepatocytes, oleate lipid droplets, measured here: cell count, cytotoxicity flag, at 6.5 µM. The method in brief: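 Assay system: AML12 mouse liver cells | Compound: 6.5 µM single-point dosing | Schedule: Overnight exposure | Technique: Fluorescence imaging, 20x objective, two fields per well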
With `CC1(C)CCCN(C(=O)c2ccc3c(c2NCCO)C(=O)c2ccccc2C3=O)C1`, the cell count was found to be 817 cells.

`CCC(C)NCCOc1ccc(C(C)(C)c2ccccc2)cc1` (configuration not stated) had a cell count of 694 cells.

`CCCOc1ccc(CNC(=O)c2ccc3nc(N4CCOCC4)sc3c2)cc1` yielded a cell count of 744 cells.

Compound `C/C=C/c1ccccc1OCc1ccc(C(=O)O)o1` yielded a cell count of 213 cells.

`Cc1cc(C)n(-c2nc3c(c(=O)[nH]c(=O)n3C)n2CC(O)COc2ccc(Cl)cc2Cl)n1` (configuration not stated) came in with a cell count of 833 cells.

`COc1ccc2c(c1)O[C@@H](c1cccc(C(F)(F)F)c1)[C@H](OC(=O)NCCc1ccc(OC)c(OC)c1)C2=O` registered a cell count of 705 cells.

Turning to `c1ccc2c(c1)CCCC2C1=NCCN1` (configuration not stated), the cell count came to 680 cells.

`Cc1nc(NC(=O)C2CC2)sc1C(=O)N(C)C` returned a cell count of 804 cells.

In the case of `CCOc1ccc(C(C)NC(=O)Cc2ccccc2F)cc1OCC` (configuration not stated), the cell count was 695 cells.

Compound `COc1ccc(C(C)=O)cc1CSc1nnc(Nc2ccc(C)cc2C)s1` yielded a cell count of 382 cells.

As to `CCOc1ccc2c(c1)-c1c(ssc1=S)C(C)(C)N2C(=O)CSC1=NCCS1`, the cell count was found to be 606 cells.

`COc1cccc(-n2nc(C#N)c(Cl)cc2=O)c1` registered a cell count of 166 cells.

`CCCNS(=O)(=O)c1ccc(CCC(=O)Nc2cc(Cl)ccc2Oc2ccccc2)cc1` returned a cell count of 684 cells.

`CC1=CC(C)(C)N2C(=O)C3(NCCc4c3[nH]c3ccccc43)c3cccc1c32` (configuration not stated) displayed a cell count of 702 cells.

`Cc1nn(-c2ccc([N+](=O)[O-])cc2)c2c1C(c1cccc(Br)c1)N1C(=N2)C(=O)Nc2ccccc21` (configuration not stated) had a cell count of 612 cells.

Consider `Cc1ccc(S(=O)(=O)N(C)C)cc1NC(=S)Nc1ccc2cn[nH]c2c1`, for which the cell count came to 650 cells.

In turn, `COc1nccnc1NS(=O)(=O)c1ccc(NCc2cc(Br)ccc2O)cc1` displayed a cell count of 843 cells.

Take `N#C/C(=C\c1ccc(-c2ccccc2[N+](=O)[O-])o1)C(=O)Nc1nc(-c2cccs2)cs1`: the cell count worked out at 686 cells.

`COc1ccccc1N=Nc1c(C)[nH]n(-c2ccccc2)c1=O`: the cell count was 806 cells.

With `CCOc1ccc(NC(=O)CN(C)C(=O)c2ccc(C)c(S(=O)(=O)N3CCCCC3)c2)cc1OCC`, the cell count was 694 cells.

In the case of `COc1cc(OC)cc(C(=O)N[C@H](C(=O)Nc2nc3ccccc3[nH]2)C(C)C)c1`, the cell count turned out to be 263 cells.

For `CCCCN1C(=O)/C(=C/C=C2\Oc3ccccc3N2CC)SC1=S`, the cell count turned out to be 628 cells.

Compound `COc1ccc(CCNc2nnc(Sc3nnnn3-c3ccccc3)s2)cc1OC` registered a cell count of 57 cells.

Consider `COc1ccc(C2CC(c3cccs3)=NN2C(=O)CSc2nc3ccccc3s2)cc1` (configuration not stated), for which the cell count worked out at 614 cells.

`Cc1cc(C)c(S(=O)(=O)N2CCOC2CNC(=O)C(=O)NCCc2c[nH]c3ccccc23)c(C)c1` (configuration not stated) showed a cell count of 699 cells.

Consider `O=C(Nc1ccccc1)c1ccc(NCC2CCCO2)c(S(=O)(=O)N2CCOCC2)c1` (configuration not stated), for which the cell count is 780 cells.

For the compound `COc1ccc(NC(=O)C(C)Sc2nnc3c4c(nc(-c5ccc(OC)cc5)n23)CC(C)(C)OC4)cc1` (configuration not stated), the cell count amounted to 675 cells.

On to `O=C(N/N=C/c1ccccc1Cl)c1[nH]c2ccc(Br)cc2c1-c1ccccc1`, for which the cell count is 62 cells.

Compound `Cc1c(C(=O)OCCOC(C)C)[nH]c2c1C(=O)CC(c1ccco1)C2` (configuration not stated) yielded a cell count of 146 cells.

Compound `CCOc1cc2c(cc1OCC)C(c1ccc(OC)cc1)N(c1ccccc1)C(=O)C2` (configuration not stated) had a cell count of 594 cells.

`COc1cccc2sc(Nc3nc(-c4cc5ccccc5oc4=O)cs3)nc12` gave a cell count of 175 cells.

In the case of `O=C(CSc1nc2ccccc2o1)Nc1nc(-c2ccccc2)c(-c2ccccc2)s1`, the cell count is 564 cells.

In the case of `CCOc1ccc(CCNC(=O)CSc2nn(-c3ccc(C)c(Cl)c3)c(=S)s2)cc1OCC`, the cell count amounted to 688 cells.

In the case of `CCN(CC)S(=O)(=O)c1ccc(N2C(=O)CC2(/C=C/c2ccccc2)C(=O)NC2CCCC2)cc1` (configuration not stated), the cell count came out at 610 cells.

For the compound `Cc1c(O)ccc(/C=N/Nc2nc(-c3cccnc3)nc3ccccc23)c1O`, the cell count amounted to 653 cells.

`COc1ccc(NC(=O)CSc2nc3ccccc3nc2N2CCCC2)cc1` had a cell count of 739 cells.

Turning to `CCOc1ccccc1NC(=O)CSc1nnc(Cn2c(=O)sc3ccccc32)n1C`, the cell count amounted to 758 cells.

The compound `CCCCCC(/C=N/Nc1ccc(S(=O)(=O)N2CCOCC2)cc1[N+](=O)[O-])=C\c1ccccc1` yielded a cell count of 724 cells.

Regarding `CC1=C(C(=O)NC2CCCc3c2cnn3-c2cccc(C)c2C)OCCO1` (configuration not stated), the cell count came out at 631 cells.

The compound `COc1ccc(CCNC(=O)c2cc3c(=O)n4ccccc4nc3n(CCCN3CCOCC3)c2=N)cc1OC` gave a cell count of 212 cells.

Compound `O=C1C(NS(=O)(=O)c2ccccc2)=C(N2CCN(c3ccc(F)cc3)CC2)C(=O)c2ccccc21` showed a cell count of 682 cells.

Regarding `CC(C)(C)c1cc(NC(=O)Nc2ccc(Cl)cc2Cl)no1`, the cell count turned out to be 772 cells.

`CCCc1nc2oc3c(NCCCN(C)C)ncnc3c2c2c1CCCC2` yielded a cell count of 57 cells.

Consider `Cc1[nH]n(-c2ccccc2)c(=O)c1N=Nc1ccccc1`, for which the cell count is 660 cells.

`Cc1cc(C)nc(NCCO)n1` yielded a cell count of 710 cells.

`COC(=O)c1ccc(C)c(NS(=O)(=O)c2ccc(OC)cc2)c1`: the cell count turned out to be 239 cells.

Consider `CC1CCCN(C(=O)c2ccc3c(c2NCCO)C(=O)c2ccccc2C3=O)C1` (configuration not stated), for which the cell count amounted to 762 cells.

Turning to `CN(C)c1ccc(NC2=C([N+](=O)[O-])CS(=O)(=O)C2)cc1`, the cell count was 825 cells.

For `COc1ccc(CCNC(=O)[C@H](C)N2C(=O)N3CCc4c([nH]c5ccccc45)[C@@]3(C)C2=O)cc1OC`, the cell count was 822 cells.

In the case of `CCOc1ccc(CCNC(=O)CN2C(=O)NC(CCSC)C2=O)cc1OCC` (configuration not stated), the cell count was found to be 670 cells.

`COc1ccc(NS(=O)(=O)c2ccc(NC(=S)NCC3CCCO3)cc2)cc1` (configuration not stated): the cell count is 695 cells.

Take `CC1Cc2cc(S(=O)(=O)NCCC(=O)N(C)Cc3ccccc3)ccc2N1C(=O)C1CC1` (configuration not stated): the cell count amounted to 740 cells.

Compound `CN(C)c1ccc(C(=O)c2ccc(N(C)C)c3ccccc23)cc1` showed a cell count of 41 cells.

Regarding `COc1ccc(-c2cc(C(F)(F)F)nc(SCCC(=O)NCc3ccccc3)n2)cc1`, the cell count amounted to 753 cells.

`C/C(=N\Nc1ccc(S(=O)(=O)Nc2ccc(Cl)cc2)cc1[N+](=O)[O-])c1ccc(N2CCOCC2)cc1` showed a cell count of 585 cells.

Compound `CC(=O)OCC(=O)[C@@]1(O)CC[C@H]2[C@@H]3CCC4=CC(=O)CC[C@]4(C)[C@H]3[C@@H](O)C[C@@]21C` had a cell count of 746 cells.

In turn, `O=C(N/N=C/c1cccs1)c1cc(-c2ccncc2)nc2ccccc12` yielded a cell count of 169 cells.

The compound `CCOc1ccc2c(c1)-c1c(ssc1=S)C(C)(C)N2C` yielded a cell count of 758 cells.

Compound `Oc1c(N=Nc2ccc(F)cc2)ccc2ccccc12` registered a cell count of 794 cells.

On to `O=C1OCC2=C1C(c1ccc(F)cc1)c1cc3c(cc1N2)OCO3` (configuration not stated), for which the cell count came out at 112 cells.

`COc1ccc(CC(=O)OCC(=O)N2N=C(c3ccccc3)CC2c2ccc(OC)cc2)cc1` (configuration not stated) showed a cell count of 719 cells.

In turn, `CC(=O)Nc1ccc(/C(C)=N/Nc2nc(Nc3ccccc3)nc(N3CCOCC3)n2)cc1` registered a cell count of 8 cells.

As for `CCOc1ccc(C(=O)NCC(=O)NC(C)CCc2ccccc2)cc1OCC` (configuration not stated), the cell count was 726 cells.

As for `COc1ccc(OC)c(/C=C/C(=O)N(C)CC(=O)Nc2ccc(C)cc2)c1`, the cell count stood at 643 cells.

`COc1cc2ncnc(NCc3ccc(Cl)cc3)c2cc1OC` yielded a cell count of 488 cells.

Turning to `COC(=O)c1ccc(C2=NOC(C)(c3sc(-c4ccc(Cl)cc4)nc3C)C2)cc1` (configuration not stated), the cell count stood at 587 cells.

With `Cc1cccc(NC2=C(NCCO)C(=O)c3ccccc3C2=O)c1`, the cell count was 713 cells.

The compound `COc1ncccc1C(=O)NC1CCCc2c1cnn2-c1ccc(C)c(C)c1` (configuration not stated) displayed a cell count of 642 cells.

The compound `CCOC(=O)c1cc(-c2ccc(C)cc2)nc2nc(SC)[nH]c(=O)c12` returned a cell count of 640 cells.

Take `CCOc1ccc(CCNC(=O)C2CCN(S(=O)(=O)N3CC(C)CC(C)C3)CC2)cc1OCC` (configuration not stated): the cell count amounted to 824 cells.

In turn, `CCN(CC)S(=O)(=O)c1ccc(C(=O)NCc2ccc3[nH]c4c(c3c2)CCCC4)cc1` yielded a cell count of 711 cells.

Take `Cc1cc(C(=O)OC(C)C(=O)Nc2nc(-c3ccccc3)cs2)c(C)o1` (configuration not stated): the cell count is 787 cells.

`COc1ccc(N=C2C(=Nc3ccc(OC)cc3)N(c3ccc(OC)cc3)C(=S)N2C(=O)c2ccc(OC)cc2)cc1` showed a cell count of 736 cells.

For `O=C(CCNC(=O)C1CCN(S(=O)(=O)c2ccccc2)CC1)NCc1ccc(Cl)cc1Cl`, the cell count worked out at 704 cells.

`Cc1noc(NS(=O)(=O)c2ccc(NC(=O)CC(C)C)cc2)c1C` displayed a cell count of 250 cells.

The compound `CC(C)c1ccc(NC(=O)CSc2nc3ccccc3nc2N2CCCC2)cc1` came in with a cell count of 756 cells.

`Cc1ccc(S(=O)(=O)NNC(=O)C2COc3ccccc3O2)cc1` (configuration not stated) registered a cell count of 287 cells.

In turn, `O=C(Nc1ccc(NS(=O)(=O)c2ccccc2)cc1)c1ccccc1` gave a cell count of 17 cells.

`CN1/C(=C\C=C(/C#N)C(=O)Nc2ccccc2F)C(C)(C)c2ccccc21` yielded a cell count of 195 cells.

Consider `O=C1C=C(Nc2cccc3cccnc23)c2ccccc2C1=O`, for which the cell count is 299 cells.

Consider `Cc1ccc(NC(=O)/C=C/c2ccc([N+](=O)[O-])s2)c(C)c1`, for which the cell count was 127 cells.

Turning to `CCOc1ccc(CCNC(=O)Cn2ccc3ccccc3c2=O)cc1OCC`, the cell count was 684 cells.

`O=C(Cn1nnc(-c2ccc([N+](=O)[O-])cc2)n1)NNC(=O)c1ccccc1` yielded a cell count of 763 cells.

The compound `CCOc1ccc(C(=O)NCCNC(=O)c2ccc(OCC)cc2)cc1` registered a cell count of 849 cells.

For the compound `N#C/C(=C\c1sc(N2CCOCC2)nc1-c1ccccc1)C(=O)Nc1cccc2ccccc12`, the cell count was 696 cells.

Take `C=C(C)Cn1c(N2CCC(Cc3ccccc3)CC2)nc2c1c(=O)[nH]c(=O)n2C`: the cell count was determined as 655 cells.

For the compound `Cc1cc(C)cc(N(CC(=O)O)S(=O)(=O)c2c(C)noc2C)c1`, the cell count is 836 cells.

The compound `O=C(Nc1ccccc1F)C(=Cc1sc(N2CCOCC2)nc1-c1ccccc1)C(=O)Nc1ccccc1F` had a cell count of 624 cells.

Regarding `COc1ccc2c(c1)c(CC(=O)Nc1cc(C)ccc1C)c(C)n2C(=O)c1ccc(Cl)cc1`, the cell count came out at 647 cells.

Compound `CCCc1cc(N2CCCC2)n2nc(C)c(-c3ccccc3)c2n1` came in with a cell count of 666 cells.

`CCOC(=O)C(NC(=O)c1cccc(Cl)c1)(OCc1ccc(F)cc1)C(F)(F)F` (configuration not stated) yielded a cell count of 661 cells.

The compound `CC(Sc1nc(NCc2ccccc2)nc(N2CCOCC2)n1)C(=O)Nc1ccccc1` (configuration not stated) returned a cell count of 762 cells.

Consider `CCOc1ccc(C(=O)OCC(=O)Nc2nc(OC)cc(OC)n2)cc1OCC`, for which the cell count stood at 676 cells.

Regarding `N#CC(C#N)=c1ccc2c(c1)N1C(c3ccccc3)=CC(c3ccccc3)C3CCCCC31N=2` (configuration not stated), the cell count came out at 643 cells.

In turn, `CCOCCCNc1nc2c(C)cccn2c(=O)c1/C=C1\SC(=S)N(C(C)CC)C1=O` (configuration not stated) gave a cell count of 703 cells.

As for `CC1=Nc2ccccc2/C1=C\c1sc(Nc2ccc(C)cc2)nc1O`, the cell count was 162 cells.

The compound `COc1ccc(S(=O)(=O)N2c3cc(Cl)ccc3Oc3nc4ccccc4nc32)cc1` gave a cell count of 128 cells.
